These results are taken from PubChem BioAssay (NCI).

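Dose response: 5 concentrations. Exposure: 48 h. Format: 96-well plates. Endpoint: linear interpolation; highest concentration if not reached. The concentration for 50% growth inhibition is given as GI50. TGI is the concentration that stops growth completely.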

The test system of this test is NCI-H322M lung. As to the kind of experiment: NCI tumour cell line growth inhibition, 48 h.
In turn, `Nc1ccccc1N` had a TGI above 100 µM.

In turn, `CC(=O)N1C/C(=C\c2ccccc2)C(=O)/C(=C/c2ccccc2)C1` showed a TGI of 33.4 µM.

On to `Cc1c(C(Cc2ccccc2N(C)C(=O)/C=C\C(=O)O)c2c[nH]c3ccccc23)c2ccccc2n1C` (stereo not given), for which the TGI was determined as 30 µM.

With `Brc1ccc(C2=NCSC(c3ccc(Br)cc3)=N2)cc1`, the TGI came out at 92.4 µM.

For `Nc1c(C(=O)Nc2cccc(Cl)c2)sc2nc3c(cc12)C(=O)CCC3`, the TGI is above 100 µM.

The compound `O=C(O)c1ccccc1CN1CCCC(C(=O)O)C1` (stereo not given) showed a TGI above 100 µM.

In turn, `CCOC(=O)c1nc2ccccc2nc1Oc1cc(OC)cc(OC)c1` registered a TGI above 100 µM.

In the case of `COCN1C(=O)[C@@H]2CCCN2C(=O)c2cc(OC)c(Cc3ccccc3)cc21`, the TGI was above 100 µM.

`COc1ccc2c(-c3csc(-c4c[nH]c5ccc(Br)cc45)n3)c[nH]c2c1`: the TGI was above 100 µM.

With `ClC1=C(Cl)C(Cl)(C2(Cl)C(Cl)=C(Cl)C(Cl)=C2Cl)C(Cl)=C1Cl`, the GI50 was 2.85 µM and the TGI was 10.3 µM.

The compound `C[C@@H]1C(=O)CC2C(C)(C)CCC[C@]2(C)[C@@]12CC[C@]1(C=COC1)O2` (stereo not given in full) gave a TGI above 100 µM.

For `CC1CCCCCC(=O)c2c(O)cc(O)cc2CC(=O)O1` (stereo not given), the TGI is above 100 µM.

Compound `NCCCCCC(CCN)SCC1OC(n2cnc3c(N)ncnc32)C(O)C1O` (stereo not given) returned a TGI above 1500 µM.

The compound `CS(=O)(=O)OCCN(CCOS(C)(=O)=O)c1ccc(C=Nc2ccc(-c3csc(COc4ccccc4)n3)cc2)cc1` had a TGI of 26.2 µM.

Turning to `CC1(C)N=C(N)N=C(N)N1c1ccc(OCCCNC(=O)Nc2ccc(S(=O)(=O)F)cc2)c(Cl)c1`, the GI50 was 1.87 µM and the TGI was above 100 µM.

Regarding `CN(C)CCNc1ccc(NCC[N+](C)(C)Cc2ccc([N+](=O)[O-])cc2)c2c1C(=O)c1c(O)ccc(O)c1C2=O`, the TGI is above 100 µM.

Compound `NC(N)=N/N=C\c1c(-c2cccc([N+](=O)[O-])c2)nc2sccn12` gave a TGI of 17.8 µM.

Compound `CCN(CC)C(=O)CCn1ccc(=O)[nH]c1=O` displayed a TGI above 100 µM.

The compound `Cc1ccc(S(=O)c2ccccc2[N+](=O)[O-])cc1` (stereo not given) yielded a TGI above 100 µM.

Compound `COc1ccc(C(=O)C(C(=O)CCC(=O)Nc2ccc(Cl)c(Cl)c2)c2ccc(OC)cc2)cc1` (stereo not given) had a TGI above 100 µM.

As to `CN(C)CCC(N)(P(=O)([O-])[O-])P(=O)([O-])[O-].N.N.[Pt+2]`, the GI50 was above 100 µM and the TGI was above 100 µM.

As for `C=CCC1(O)c2ccccc2C(=O)c2c(OCC(=O)OCC)ccc(OCC(=O)OCC)c21` (stereo not given), the GI50 was above 100 µM and the TGI is above 100 µM.

With `CN1CCN(Cc2ccc(NC(=O)c3cncc(C#Cc4cnc(N)c5ncccc45)c3)cc2C(F)(F)F)CC1`, the GI50 was 0.406 µM and the TGI is 15 µM.

On to `COC(=O)C(Cc1ccccc1)NC(=O)CSc1nnc(COc2ccc(Cl)cc2)n1-c1ccccc1` (stereo not given), for which the TGI was found to be 51.7 µM.

Compound `COc1cc2nc(-c3cccs3)nc(Nc3cccc([N+](=O)[O-])c3)c2cc1OC` displayed a TGI of 41.6 µM.

Compound `CC(=O)OCC1OC(N2C(=O)[C@@H](Oc3ccccc3)[C@H]2/C=C/c2ccccc2)C(OC(C)=O)C(OC(C)=O)C1OC(C)=O` (stereo not given in full) registered a TGI above 100 µM.

Consider `CC(=O)N1C=Cc2c(c(C)c3c([nH]c4ccccc43)c2C)C1`, for which the TGI came out at 21.2 µM.

For `CCOc1ccc(N(C)c2ccc(/C=C/C3=[N+](C)c4ccccc4C3(C)C)cc2)cc1`, the GI50 was 0.827 µM and the TGI worked out at 6.71 µM.

For `O=C1C(Cl)C(c2cccc([N+](=O)[O-])c2)N1n1cnc2ccccc2c1=O` (stereo not given), the TGI is above 100 µM.

Take `CC(C)=CCc1cc2c(cc1O)C1=C(C(=O)C3=C(NCCS3(=O)=O)C1=O)C(C=C(C)C)O2` (stereo not given): the GI50 was 4.45 µM and the TGI stood at 14.9 µM.

`O=C1c2ccccc2-c2nnc3c(c21)Cc1ccccc1C3` showed a TGI above 10 µM.

For the compound `CC(=O)CCC#Cc1ccccc1C(=O)C(C)=[N+]=[N-]`, the TGI was above 100 µM.

In turn, `O=C(O)C(Cc1cc(I)c(O)c(I)c1)C1CCCCC1` (stereo not given) gave a TGI above 100 µM.

Regarding `O=C(CNc1ccccc1[N+](=O)[O-])Nn1cnc2ccc(S(=O)(=O)Nc3ccccc3[N+](=O)[O-])cc2c1=O`, the TGI was above 100 µM.

Regarding `O=C(NCc1cn(Cc2cccc(Oc3ccccc3)c2)nn1)c1cccnc1Nc1ccc(F)cc1`, the GI50 is 29.9 µM and the TGI is above 100 µM.

The compound `CC(=O)c1ccc(Br)cc1NC1=CC(=O)c2ncccc2C1=O` showed a TGI of 1.9 µM.

`Clc1ccc(/C=C/c2nc(-c3ccccc3)cn3c2nc2ccccc23)cc1Cl` gave a TGI above 100 µM.

In the case of `CN(Cc1cnc2nc(N)nc(N)c2n1)c1ccc(C(=O)NCCCS(=O)(=O)O)cc1`, the TGI was above 100 µM.

Compound `CC(C)(CN1CCCCC1)C(=O)/C=C/c1ccccc1` showed a TGI of 23 µM.

With `CC1=C(CCCOC(=O)[C@H](N)CC(C)C)C2=C(C)C3(CC3)[C@@](C)(O)C(=O)C2=C1`, the GI50 was 2.07 µM and the TGI was 7.06 µM.

Take `N#CCCNc1nonc1-c1nc2ccccc2n1CC(=O)c1ccc(N)cc1`: the GI50 is above 100 µM and the TGI is above 100 µM.

As for `N=c1sc2ccccc2n1CCS` (tested in a mixture with another compound), the TGI amounted to 41.9 µM.

`O=C(CC(NC(=O)OCc1ccccc1)C(=O)NC1Cc2ccccc2C1=O)OCc1ccccc1` (stereo not given) registered a TGI above 100 µM.

In turn, `CC(=O)OC(C)(C)C1CC[C@]2(C)/C=C/C(C)C[C@@H](O)/C=C(\C)CC(O)C12` (stereo not given in full) came in with a TGI above 100 µM.

As for `O=C(/C=C\c1ccc(O)c(O)c1)c1ccccc1O`, the GI50 was 16.4 µM and the TGI was 65.1 µM.

`CCCc1nnc2sc(COc3ccc(OCc4nn5c(CCC)nnc5s4)c(Cl)c3)nn12`: the TGI was above 100 µM.

As for `CN1C2CCC1/C(=C/c1cccc3c1OCO3)C(=O)/C2=C\c1cccc2c1OCO2`, the TGI was above 100 µM.

Compound `CC(=O)OCC1C(=O)OCC1C(=O)N1Cc2cc3ccccc3nc2C1` (stereo not given) displayed a TGI of 30.4 µM.

In turn, `C=C1c2nc3ccccc3n2C=C(c2ccc(OC)cc2)N1c1ccc(OCCN2CCCCC2)cc1` registered a TGI above 100 µM.

With `CN1CCN(Cn2nc(COc3ccccc3Cl)n(/N=C/c3ccc(-c4ccc(Cl)cc4Cl)o3)c2=S)CC1`, the TGI is above 100 µM.

The compound `O=C(O)CN1CCSc2ccccc2CN(CC(=O)O)CCSc2ccccc2C1` returned a TGI above 100 µM.

Compound `O=C(Cc1ccccc1)NN1C(=O)C(Cl)C1c1ccc(Cl)cc1` (stereo not given) came in with a TGI above 100 µM.

`N#CC(C#N)=c1c(=O)c2c3ccccc3cc3cccc1c32` showed a TGI above 100 µM.

On to `O=c1nc2n(-c3cccc(Cl)c3)c3ccc([N+](=O)[O-])cc3cc-2c(=O)[nH]1`, for which the GI50 is 8.32 µM and the TGI came to 19.7 µM.

`N=C(N)SCc1ccc2c(c1)S(=O)(=O)c1ccccc1O2` displayed a TGI of 42.6 µM.

The compound `COc1nc(NC2OC(COC(C)=O)C(OC(C)=O)C(OC(C)=O)C2OC(C)=O)c(N=CC=Nc2c(NC3OC(COC(C)=O)C(OC(C)=O)C(OC(C)=O)C3OC(C)=O)nc(OC)[nH]c2=O)c(=O)[nH]1` (stereo not given) came in with a TGI above 100 µM.

The compound `N#Cc1cc2c(cc1C#N)SCCSCCCSCCS2` showed a TGI above 82.4 µM.

Compound `COC(=O)C(=O)C(C(=O)C(=O)Nc1ccc(Cl)c(Cl)c1)c1nc2ccc(C(=O)c3ccccc3)cc2[nH]c1=O` (stereo not given) yielded a TGI above 100 µM.

Consider `C=C1CC[C@](C)(O)[C@@]2(C)CC[C@H]3C(=C(C)C)C(=O)C[C@]3(C)C[C@H]12`, for which the TGI was above 50 µM.

`CCOC(=O)CC1=N/C(=N/C(=N)N[N+](=O)[O-])SC1` yielded a TGI above 100 µM.

With `C=CCc1cccc(C=O)c1O`, the GI50 was above 100 µM and the TGI was above 100 µM.

`C=CCN1C(=O)CC2[C@@H]3CCc4cc(O)ccc4C3CC[C@]2(C)C1=O` (stereo not given in full): the TGI is above 10 µM.
